Results published in patent publication US10233255B2, “Antibody therapeutics that bind STAT3” (Sorrento Therapeutics, Inc., priority 2016, dated 2019).

Target: STAT3 (Homo sapiens, UniProt P40763)
Test: Cell binding assay on fixed, permeabilized human cells (PE anti-human IgG, flow cytometry)
Parameters: endogenous in cells; host or cells: MDA-MB-468 (also given as MDA-MB-435), U251, HeLa
Method: Next, the binding of the candidate anti-STAT3 antibodies to cellular targets was tested in cell binding assays using MDA-MB-435 breast cancer cells and U251 cells. The cells were seeded overnight in a 96 well plate, then fixed with PFA and permeabilized with methanol. Cells were incubated with serial dilutions of the anti-STAT3 antibody candidates ST1A5, ST3G12 and ST5G12 for one hour and 30 minutes. Following incubation, the cells were washed and incubated for 30 minutes with phycoerythrin (PE) conjugated anti-human IgG. Fluorescence was measured on an Intellicyte high-throughput flow cytometry analyzer. […] Bevacizumab (Avastin), a monoclonal antibody that inhibits vascular endothelial growth factor A (VEGF-A) was used as a negative control.
An isotype control was used as a negative control. The experimental procedure was the same as described above for FIGS. 3A and 3B.

Sequence of STAT3 (P40763 whole entry): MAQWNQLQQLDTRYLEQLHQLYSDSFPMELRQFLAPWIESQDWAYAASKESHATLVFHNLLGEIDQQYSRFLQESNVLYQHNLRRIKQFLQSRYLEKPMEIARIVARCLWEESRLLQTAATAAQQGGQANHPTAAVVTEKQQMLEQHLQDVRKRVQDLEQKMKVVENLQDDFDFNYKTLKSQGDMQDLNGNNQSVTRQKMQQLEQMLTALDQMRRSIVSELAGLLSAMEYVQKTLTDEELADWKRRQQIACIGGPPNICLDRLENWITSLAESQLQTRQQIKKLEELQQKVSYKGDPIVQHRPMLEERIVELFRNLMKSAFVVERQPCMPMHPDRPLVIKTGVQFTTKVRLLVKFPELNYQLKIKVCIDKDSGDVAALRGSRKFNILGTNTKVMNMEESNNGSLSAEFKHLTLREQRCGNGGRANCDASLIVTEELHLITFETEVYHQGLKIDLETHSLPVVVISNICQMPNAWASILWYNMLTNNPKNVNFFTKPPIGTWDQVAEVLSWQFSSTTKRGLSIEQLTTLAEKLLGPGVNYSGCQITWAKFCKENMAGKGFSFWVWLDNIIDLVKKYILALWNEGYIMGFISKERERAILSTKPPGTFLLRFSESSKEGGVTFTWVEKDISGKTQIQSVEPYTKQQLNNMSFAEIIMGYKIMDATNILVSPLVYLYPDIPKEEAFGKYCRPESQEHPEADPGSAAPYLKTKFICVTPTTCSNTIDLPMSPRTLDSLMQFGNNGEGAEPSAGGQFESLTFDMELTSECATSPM

B1: ST1A5: fully human anti-STAT3 antibody, heavy/light chain variable domains SEQ ID NO. 1/SEQ ID NO. 2 (antibody, V domains shown)
VH: [about 100 residues left out here]DGGLGWGTYFRLGDAFDIWGQGTMVTVSS
VL: QSVLTQPPSVSKGLRQTATLTCTGNSNNVGNEGAAWLQQHQGHPPKLLSYRNFNRPSGISERFSASRSGNTASLTITGLQPEDEADYYCSAWDSSLSAWVFGGGTKLTVL
- STAT3 binding in MDA-MB-468 cells (MDA-MB-468 cells, FIG. 3A): did not show strong STAT3 binding
- STAT3 binding in U251 cells (U251 cells, FIG. 3B / 3C): did not show strong STAT3 binding
